Some of the results follow.
Columns and labels:
HSkMC = human skeletal muscle cells; test: cytotoxicity call (relative viability < 0.9); conditions: 10 µM
HepG2 = test: cytotoxicity call (relative viability < 0.9); conditions: 10 µM
S. aureus RN4220 = test: growth inhibition call (relative growth <= 0.2); conditions: 50 µM

Compound	cytotoxicity call (HSkMC)	cytotoxicity call (HepG2)	growth inhibition call (S. aureus RN4220)
C[C@@H]1CN([C@H](C)CO)S(=O)(=O)c2ccc(-c3cccc(F)c3)cc2O[C@H]1CN(C)S(C)(=O)=O	inactive	inactive	inactive
C[C@@H]1CN([C@H](C)CO)S(=O)(=O)c2ccc(C#Cc3ccc(F)cc3)cc2O[C@H]1CN(C)C(=O)c1ccccn1	inactive	inactive	inactive
O=C(C[C@H]1C=C[C@H](NC(=O)Nc2cc(F)ccc2F)[C@H](CO)O1)NCCCN1CCOCC1	inactive	inactive	inactive
C[C@H](CO)N1C[C@H](C)[C@@H](CN(C)Cc2ccc(-c3ccccc3)cc2)Oc2ccc(NS(=O)(=O)c3ccc(F)cc3)cc2CC1=O	inactive	active	inactive
C[C@@H]1NC(=O)[C@@H](N)CNC(=O)[C@H]([C@H]2CCN=C(N)N2)NC(=O)/C(=C\NC(N)=O)NC(=O)[C@H](CNC(=O)C[C@@H](N)CCCN)NC1=O	inactive	inactive	inactive
C[C@@H]1CN([C@@H](C)CO)S(=O)(=O)c2ccc(-c3cncnc3)cc2O[C@@H]1CN(C)C(=O)Cc1cccnc1	inactive	inactive	inactive
C[C@@H]1CN([C@@H](C)CO)C(=O)c2cccc(NC(=O)Nc3ccc(F)cc3)c2O[C@@H]1CN(C)Cc1ccc(C(=O)Nc2ccccc2N)cc1	inactive	active	inactive
C[C@H]1CN([C@@H](C)CO)C(=O)Cc2cc(NC(=O)Nc3ccc(F)cc3)ccc2O[C@H]1CN(C)Cc1ccc(Oc2ccccc2)cc1	active	active	inactive
C[C@H](CO)N1C[C@H](C)[C@H](CN(C)C(=O)C2CCCCC2)Oc2cc(C#Cc3ccncc3)ccc2S1(=O)=O	inactive	active	inactive
C[C@H](CO)N1C[C@H](C)[C@@H](CN(C)S(=O)(=O)c2ccc(Oc3ccccc3)nc2)OCc2cnnn2CCCC1=O	inactive	inactive	inactive
COc1ccccc1-c1cnc2c(c1)C(=O)N([C@@H](C)CO)C[C@@H](C)[C@@H](CN(C)C(=O)c1ccncc1)O2	inactive	inactive	inactive
C[C@@H]1CCCCO[C@H](CN(C)S(=O)(=O)c2cn(C)cn2)[C@H](C)CN([C@@H](C)CO)C(=O)c2cc(NS(=O)(=O)c3ccc(F)cc3)ccc2O1	inactive	inactive	inactive
O=C1CCc2ccc(OCCCCN3CCN(c4cccc(Cl)c4Cl)CC3)cc2N1	inactive	active	inactive
O=C(O)C[C@H]1Nc2ccccc2NC1=O	inactive	inactive	inactive
COc1ccc(S(=O)(=O)N(C)C[C@H]2Oc3ccc(NS(=O)(=O)c4cn(C)cn4)cc3CC(=O)N([C@@H](C)CO)C[C@@H]2C)cc1	inactive	inactive	inactive
Cc1ccc(S(=O)(=O)N(C)C[C@@H]2OCCCC[C@@H](C)Oc3ccc(NC(=O)Nc4ccc(C(F)(F)F)cc4)cc3C(=O)N([C@H](C)CO)C[C@H]2C)cc1	inactive	inactive	inactive
C=CC[C@@H](CC(=O)N[C@H](CO)Cc1ccccc1)C(=O)NCCOC(=O)[C@@H](CC=C)CC(=O)OC(C)(C)C	inactive	inactive	inactive
CN1CC2(CCC1=O)CCN(C(=O)c1cc(=O)n(C)c(=O)n1C)CC2	inactive	inactive	inactive
C[C@@H]1CN([C@H](C)CO)C(=O)c2cc(NS(=O)(=O)c3ccc(F)cc3)ccc2O[C@@H]1CN(C)S(C)(=O)=O	inactive	inactive	inactive
COCC#Cc1cnc2c(c1)C(=O)N([C@@H](C)CO)C[C@H](C)[C@H](CN(C)S(=O)(=O)c1cn(C)cn1)O2	inactive	inactive	inactive
COc1ccc(C2CC(=O)c3c(O)cc(OC4OC(COC5OC(C)C(O)C(O)C5O)C(O)C(O)C4O)cc3O2)cc1O (stereo not given)	inactive	inactive	inactive
COc1ccc(S(=O)(=O)Nc2ccc3c(c2)C(=O)N([C@H](C)CO)C[C@@H](C)[C@@H](CN(C)C(=O)Nc2ccc(C(F)(F)F)cc2)OCCCC[C@@H](C)O3)cc1	inactive	inactive	inactive
C[C@@H]1CN([C@H](C)CO)C(=O)c2cc(/C=C/c3ccccc3)cnc2O[C@H]1CN(C)C(=O)Nc1ccc(C(F)(F)F)cc1	inactive	inactive	inactive
C[C@@H]1CN([C@H](C)CO)C(=O)c2cc(NC(=O)C3CC3)ccc2O[C@H]1CN(C)C(=O)NC1CCCCC1	inactive	inactive	inactive
C[C@H]1CN([C@@H](C)CO)C(=O)c2cc(NS(C)(=O)=O)ccc2O[C@@H]1CN(C)S(=O)(=O)c1cn(C)cn1	inactive	inactive	inactive
